Data taken from PubChem BioAssay AID504339 (National Center for Advancing Translational Sciences (NCATS), 2011).
Where “and” joins values, the source holds several entries; their conditions need not be identical. Identical values can stand only once. In all, about 390,000 compounds went through this assay and about 17,000 (4.4%) were called active. The inconclusive results got no clear call from the source; some entries with a clear call stand among them for comparison. Calls come from the whole dose curve; as a rule, active = well fitted inhibition curve with a large enough effect; inconclusive = small, poorly fitted or top-dose-only effect; inactive = no such curve, though single readings can be large or run the other way. Where the call is inconclusive, the potency comes from a doubtful curve fit.

Target: Lysine-specific demethylase 4A (Homo sapiens) (UniProt O75164)
Assay: qHTS Assay for Inhibitors of JMJD2A-Tudor Domain; note: nearly all actives have a fitted effect of over 50% in size
Settings: AlphaScreen JMJD2A-Tudor / H3K4me3 peptide binding; series mostly up to 114 µM
Potency is the fitted concentration of half-maximal effect; tags give direction and shape of the fitted curve.

Chain of UniProt O75164 (O75164 whole entry, looked up, the tested form may be a part): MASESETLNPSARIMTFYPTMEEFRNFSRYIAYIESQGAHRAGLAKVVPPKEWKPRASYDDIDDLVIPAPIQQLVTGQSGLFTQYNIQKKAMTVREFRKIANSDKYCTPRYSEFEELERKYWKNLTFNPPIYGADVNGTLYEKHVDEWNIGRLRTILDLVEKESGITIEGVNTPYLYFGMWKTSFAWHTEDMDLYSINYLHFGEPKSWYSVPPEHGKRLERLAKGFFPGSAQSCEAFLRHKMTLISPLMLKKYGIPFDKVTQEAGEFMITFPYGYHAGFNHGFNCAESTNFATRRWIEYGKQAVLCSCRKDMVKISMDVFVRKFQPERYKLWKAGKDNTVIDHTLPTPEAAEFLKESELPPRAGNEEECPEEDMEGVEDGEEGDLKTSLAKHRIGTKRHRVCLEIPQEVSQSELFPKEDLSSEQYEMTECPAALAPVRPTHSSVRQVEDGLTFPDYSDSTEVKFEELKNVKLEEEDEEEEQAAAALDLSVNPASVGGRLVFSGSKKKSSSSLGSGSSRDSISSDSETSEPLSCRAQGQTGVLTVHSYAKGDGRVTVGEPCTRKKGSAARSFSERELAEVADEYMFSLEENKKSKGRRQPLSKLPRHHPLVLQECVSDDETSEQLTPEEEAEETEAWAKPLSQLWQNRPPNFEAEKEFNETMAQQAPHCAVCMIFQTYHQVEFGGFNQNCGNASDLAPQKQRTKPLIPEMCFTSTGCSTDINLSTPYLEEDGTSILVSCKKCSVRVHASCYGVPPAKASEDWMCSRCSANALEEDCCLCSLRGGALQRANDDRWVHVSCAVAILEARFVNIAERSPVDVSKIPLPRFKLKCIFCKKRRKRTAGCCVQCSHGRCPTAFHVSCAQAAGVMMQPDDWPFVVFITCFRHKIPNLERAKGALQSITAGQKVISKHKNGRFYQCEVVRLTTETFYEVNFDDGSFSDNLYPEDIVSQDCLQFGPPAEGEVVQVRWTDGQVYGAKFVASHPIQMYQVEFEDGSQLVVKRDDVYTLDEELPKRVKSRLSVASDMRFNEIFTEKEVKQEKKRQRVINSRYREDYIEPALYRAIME

Potency, inconclusive:
COc1cc(C2c3c([nH]c(=O)[nH]c3=O)Nc3ccc4ccccc4c32)cc(OC)c1OC (stereo not given) 20 µM [inhibitor, full curve, poor fit]
COc1cc(/C=N/N2CCOCC2)ccc1OCc1ccccc1 44.7 µM [inhibitor, partial curve]
O=C(Oc1ccc2c(c1)O/C(=C\c1ccncc1)C2=O)c1ccccc1 17.8 µM [inhibitor, partial curve]
Cc1cccc(OCCn2c(=S)[nH]c3ccccc32)c1 79.4 µM [inhibitor, partial curve]
CC(=O)NCc1ccc(S(=O)(=O)NC2CCN(Cc3ccccc3)CC2)cc1 3.98 µM [inhibitor, partial curve, poor fit]
CCc1ccccc1NC(=O)c1sc2nc(C)cc(C)c2c1N 39.8 µM [inhibitor, single point]
O=C(N/N=C/c1cc(Cl)c(O)c(Cl)c1)c1cc2c(ccc3ccccc32)o1 70.8 µM [inhibitor, partial curve, poor fit]
Cc1cc(=O)n(CC(=O)Nc2ccc(Cl)c(Cl)c2)c(-n2nc(C)cc2C)n1 25.1 µM [inhibitor, full curve, poor fit]
O=[N+]([O-])c1ccc(S(=O)(=O)N2CCn3cccc3C2c2ccc(Br)cc2)cc1 (stereo not given) 39.8 µM [inhibitor, partial curve]
O=C(/C=C/c1ccco1)NC(=S)Nc1ccccc1N1CCCC1 39.8 µM [inhibitor, single point]
COc1cc2c(cc1OC)CN(C1CCCN(Cc3cc(Cl)ccc3O)C1)CC2 (stereo not given) 63.1 µM [inhibitor, partial curve, poor fit]
COc1ccc(/C=C2\Sc3ccc(C(=O)N4CCN(Cc5ccccc5)CC4)cc3N(C)C2=O)cc1OC 10 µM [inhibitor, full curve]
O=c1cc(-c2ccccc2)nc(Cc2c(Cl)cccc2Cl)[nH]1 89.1 µM [inhibitor, partial curve]
CCN(CC)S(=O)(=O)c1cc(NC(=O)c2ccc(Br)s2)ccc1C 22.4 µM [inhibitor, partial curve, poor fit]
O=C(Nc1nnc(S(=O)(=O)N2CCN(c3ccc(F)cc3)CC2)s1)c1ccco1 89.1 µM [inhibitor, partial curve]
CCCCOc1ccc(C(=O)NCc2ccco2)cc1 63.1 µM [inhibitor, partial curve, poor fit]
Cc1c(Cc2ccccc2)sc(/N=C/c2ccc3ccccc3c2)c1C(N)=O 79.4 µM [inhibitor, single point]
CC1=CC2=NC(=O)/C(=C\c3cccn3CCOc3ccccc3)C(=N)N2O1 56.2 µM [inhibitor, partial curve]
COc1cc(C(=O)N/C(=C\c2cn(C)c3ccccc23)C(=O)NCCCN2CCOCC2)cc(OC)c1OC 15.8 µM [inhibitor, full curve]
O=C(O)CN1C(=O)SC(Nc2ccccc2C(=O)O)C1=O (stereo not given) 39.8 µM [inhibitor, partial curve]
Cc1ccc(CNC(=O)c2ccc3c(c2)S(=O)(=O)c2ccccc2C3=O)o1 28.2 µM [inhibitor, single point]
C=CCOc1ccc(CNc2ccc(NC(=O)CCC)cc2)cc1OCC 44.7 µM [inhibitor, partial curve, poor fit]
O=C(O)c1ccc2c3c(cccc13)C(=O)N(c1ccccc1)C2=O 56.2 µM [inhibitor, partial curve]
CN1CCN(c2nc(NCCOC34CC5CC(CC(C5)C3)C4)nc(OCC(F)(F)F)n2)CC1 35.5 µM [inhibitor, partial curve]
O=C(Oc1ccc(F)cc1C(=O)/C=C/c1cccs1)c1cccc([N+](=O)[O-])c1 39.8 µM [inhibitor, partial curve]
Cc1ccccc1C1c2[nH]c3ccccc3c2C[C@H]2C(=O)N(c3ccccc3C(=O)NCCN3CCOCC3)C(=O)N12 (stereo not given in full) 50.1 µM [inhibitor, partial curve]
COC(=O)/C=C1\SC(=NC(=O)c2ccc(-c3ccccc3)cc2)NC1=O 31.6 µM [inhibitor, partial curve]
Cc1ccc(CN2CCN(c3ccccc3Cl)CC2)o1 89.1 µM [inhibitor, single point]
CC1=CC(C)(C)Nc2ccc(OC(=O)C(C)N3C(=O)c4ccccc4C3=O)cc21 (stereo not given) 8.91 µM [inhibitor, partial curve]
CCOc1ccc(NC(=S)NN(C)C(=S)Nc2ccc(OCC)cc2)cc1 39.8 µM [inhibitor, partial curve]
Cn1c2ccccc2c(=O)c2cc(C#Cc3ccccn3)ccc21 89.1 µM [inhibitor, single point]
CCCCc1ccc(NC(=O)Cn2cnc3c(oc4ccccc43)c2=O)cc1 31.6 µM [inhibitor, partial curve]
CCOC(=O)C1CCCN(CC(=O)Nc2nccs2)C1 (stereo not given) 25.1 µM [inhibitor, partial curve]
Cc1nn(C(C)c2n[nH]c(=S)n2-c2cccc(Cl)c2)c(C)c1[N+](=O)[O-] (stereo not given) 20 µM [inhibitor, full curve]
COc1ccc(OC)c(CCNC(=O)c2ccc3c(c2)N(Cc2ccccc2)CCS3)c1 44.7 µM [inhibitor, partial curve, poor fit] and 3.98 µM [inhibitor, full curve, poor fit]
NC(=O)CC(NC(=O)Cc1ccc(Cl)cc1)c1ccc(NC2CC3CCC2C3)c([N+](=O)[O-])c1 (stereo not given) 44.7 µM [inhibitor, partial curve]
Cc1ccccc1N1CCN(C(=S)c2ccc(-c3cccc([N+](=O)[O-])c3)o2)CC1 39.8 µM [inhibitor, partial curve]
CC(C)(C)OC(=O)N1CCC(c2c(C(=O)N3CCN(c4cccc(Cl)c4)CC3)cnn2-c2cccc(Cl)c2)CC1 39.8 µM [inhibitor, partial curve]
COCc1cc(C)nc(NC2CC(C)(C)NC(C)(C)C2)c1C#N 28.2 µM [inhibitor, single point]
O=C(C(=O)c1cc(Br)ccc1O)c1cc(Br)ccc1O 63.1 µM [inhibitor, partial curve]
CC[n+]1c(C)n(C)c2cc(S(=O)(=O)N(C)C)ccc21 22.4 µM [inhibitor, partial curve]
Cc1ccc(S(=O)(=O)Nn2c(O)c(C=C3N=c4ccccc4=N3)sc2=S)cc1 39.8 µM [inhibitor, partial curve]

Potency, inactive:
O=C(c1cc(Br)c(Br)s1)N1CCOCC1
C/C(=N\Nc1ccccc1)c1c(O)cc(C)oc1=O
O=c1oc2ccccc2c2c1ccc1ccccc12
C=CCS/C(N)=N\N=C\c1cc(Br)cc([N+](=O)[O-])c1O
CCOc1ccccc1NC(=O)CCS(=O)(=O)c1ccc2c(c1)oc(=O)n2C
Cc1ccccc1OCC(=O)NCC(=O)OCC(=O)c1ccc2c(c1)CCCC2
O=C(O)c1ccc(O)cc1O
Cc1cccc(C)c1NC(=S)N(c1ccccc1)C(C)C
CCOC(=O)c1cnc2c(C)cc(C)cc2c1NCCN1CCOCC1
COc1ccccc1NCC(=O)NC(=O)NC1CCCCC1
Cc1cc(C)nc(SCc2ccc(C(=O)N/N=C/C3CCCCC3)cc2)n1
Cc1cccc(N(C)S(=O)(=O)c2nnc(NC(=O)C(C)Oc3ccccc3)s2)c1 (stereo not given)
NCCCNc1ccc(Br)cn1
COc1cccc(-c2cc3c(-n4cccc4)ncnc3o2)c1
N#CC1=C(N)Oc2c(ccc3cccnc23)C1c1ccccc1 (stereo not given)
O=C(NCCc1ccccc1)C1CCN(C2CCN(C(=O)CC3=CCCCC3)CC2)CC1

Potency, active:
CC(=O)Nc1ccc(Nc2nc(-c3c(C)nc4ccccn34)cs2)cc1 79.4 µM
Cc1cc(C)nc(SCC(=O)c2ccc(O)c(O)c2)n1 12.6 µM
O=C(NNC(=O)c1cccc(Br)c1)Nc1ccc(Cl)cc1 12.6 µM
CC(=O)c1ccc(NC(=O)CNCC(c2ccccc2)N(C)C)cc1 (stereo not given) 2.82 µM
Cc1c(C(=O)OCc2ccccc2)[nH]c2c1C(=O)CC(c1ccco1)C2 (stereo not given) 25.1 µM
Cc1ccc(C)c(N2CCN(C(c3ccncc3)c3nnnn3Cc3ccccc3)CC2)c1 (stereo not given) 79.4 µM
CC(C)n1c(-c2ccncc2)n[nH]c1=S 22.4 µM
O=C(CSc1ncn[nH]1)c1ccccc1 25.1 µM
Oc1ccccc1CN1CCN(C(c2ccccc2)c2ccccc2)CC1 56.2 µM
Cc1cccc(-n2c(O)c(C=Nc3ccccc3)c3ccccc3c2=O)n1 11.2 µM
Cn1c[n+](C)cc1/C=N/O 50.1 µM
O=C1Nc2ccc(Br)cc2/C1=N/N=C/C1=C(N2CCOCC2)C(=C\c2ccccc2)/CC1 5.01 µM
